Results as given in the supplement of paper PMC3334620.
Whole data set: some 33,000 sequences, median “E-score (-0.5 to 0.5)” near -0.053, cut for the highest 2% near 0.37. The list shows a part of the results.

biological target: Hap1 (UniProt P0CE41); experiment: PBM E-score (8-mer binding enrichment) (E-score (-0.5 to 0.5)); higher = stronger / more preferred TF binding; most listed sequences are background and not binding sites; conditions: protein concentration: 200 nM; construct: GST-DNA-binding domain
How it was run: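 PURExpress in vitro transcription/translation supplied GST-tagged yeast transcription factors, either full-length or DNA-binding domain. Applied at about 100-200 nM to universal all-10-mer Agilent arrays double-stranded by primer extension, the bound protein was detected with fluorescent anti-GST. E-scores, modified Wilcoxon-Mann-Whitney statistics, were given by the Universal PBM Analysis Suite to ungapped eight-base words pooled with their reverse complements after masliner normalisation.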

Sequence of UniProt P0CE41 (P0CE41 whole entry, the tested form may be a part): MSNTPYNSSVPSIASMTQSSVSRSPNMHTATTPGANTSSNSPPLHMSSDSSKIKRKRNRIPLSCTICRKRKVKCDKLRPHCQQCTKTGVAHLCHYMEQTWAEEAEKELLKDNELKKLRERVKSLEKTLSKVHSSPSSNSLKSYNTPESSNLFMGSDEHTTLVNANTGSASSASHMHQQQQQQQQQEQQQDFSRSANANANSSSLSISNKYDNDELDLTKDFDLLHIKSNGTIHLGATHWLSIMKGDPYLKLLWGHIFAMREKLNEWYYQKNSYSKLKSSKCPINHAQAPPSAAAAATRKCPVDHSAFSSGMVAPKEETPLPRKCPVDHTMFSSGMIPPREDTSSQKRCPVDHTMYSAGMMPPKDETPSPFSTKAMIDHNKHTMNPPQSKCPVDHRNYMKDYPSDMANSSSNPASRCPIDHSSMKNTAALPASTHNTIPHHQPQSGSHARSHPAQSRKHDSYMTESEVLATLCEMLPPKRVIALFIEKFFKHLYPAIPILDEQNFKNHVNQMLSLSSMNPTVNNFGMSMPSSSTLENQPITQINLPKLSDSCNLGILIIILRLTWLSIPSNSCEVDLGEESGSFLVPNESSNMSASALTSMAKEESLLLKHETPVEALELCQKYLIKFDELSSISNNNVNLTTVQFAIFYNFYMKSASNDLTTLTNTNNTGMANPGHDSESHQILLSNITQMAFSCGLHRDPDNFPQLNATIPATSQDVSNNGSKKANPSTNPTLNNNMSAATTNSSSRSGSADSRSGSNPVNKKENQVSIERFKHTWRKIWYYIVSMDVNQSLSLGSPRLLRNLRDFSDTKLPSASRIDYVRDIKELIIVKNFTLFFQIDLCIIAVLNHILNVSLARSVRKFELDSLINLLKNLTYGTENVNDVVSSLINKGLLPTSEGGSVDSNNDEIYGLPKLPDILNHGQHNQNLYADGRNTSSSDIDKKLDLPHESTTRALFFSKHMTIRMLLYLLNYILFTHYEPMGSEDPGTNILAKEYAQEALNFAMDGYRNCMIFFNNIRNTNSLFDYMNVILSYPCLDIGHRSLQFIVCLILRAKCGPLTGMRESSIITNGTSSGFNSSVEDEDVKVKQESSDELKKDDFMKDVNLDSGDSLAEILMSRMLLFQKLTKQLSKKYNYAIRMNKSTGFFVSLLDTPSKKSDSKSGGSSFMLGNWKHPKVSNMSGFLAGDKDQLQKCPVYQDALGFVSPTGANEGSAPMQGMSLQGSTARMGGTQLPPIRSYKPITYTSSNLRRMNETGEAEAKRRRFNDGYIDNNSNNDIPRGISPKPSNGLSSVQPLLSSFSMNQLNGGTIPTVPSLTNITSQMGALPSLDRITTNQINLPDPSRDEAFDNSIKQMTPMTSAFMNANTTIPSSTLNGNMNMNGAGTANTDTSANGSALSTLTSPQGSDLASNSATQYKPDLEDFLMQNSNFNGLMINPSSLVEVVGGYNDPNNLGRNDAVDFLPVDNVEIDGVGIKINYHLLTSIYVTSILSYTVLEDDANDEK

| Sequence | PBM E-score |
| --- | --- |
| ACTCGCAG | -0.0512 |
| CCTATTCA | 0.0229 |
| AACTCCCC | 0.103 |
| TCTACTCA | -0.189 |
| CCGTAATC | 0.251 |
| CACTTGGC | -0.0331 |
| CCGTCGTA | 0.0926 |
| CCTTAGAG | -0.229 |
| GTATGGAC | 0.214 |
| GCGCACGA | 0.0826 |
| GGATATCA | 0.159 |
| AAGGACCC | -0.0195 |
| AAGACCCT | -0.15 |
| GAAAATCC | 0.167 |
| ACGAGATA | -0.162 |
| AACAATGC | -0.0343 |
| TCTCCACA | -0.243 |
| CAGAGGCC | -0.283 |
| CACTGCGG | 0.0606 |
| CCTCGATA | -0.0037 |
| AGTCTGGA | -0.209 |
| AACAAACG | -0.042 |
| GCTTCCTA | -0.0413 |
| TCTCTACA | -0.196 |
| GCGGTCCC | 0.0699 |

| Sequence | PBM E-score |
| --- | --- |
| CAGAGAAC | -0.318 |
| TTAGGGAA | -0.0631 |
| AGGCACGA | -0.0945 |
| ATGAAAGC | 0.0164 |
| CCTAGAGC | -0.0873 |
| CACGCCTA | -0.235 |
| CGGATTAC | 0.228 |
| GGCTTTCA | -0.00366 |
| GTTTCACA | -0.253 |
| CGTTGGAG | -0.177 |
| ACGTGCCC | -0.0044 |
| GCCGCCCA | 0.0642 |
| GACTGCCA | -0.0454 |
| ACGCACAA | -0.16 |
| AGTCAAAG | -0.13 |
| AATGAAGG | -0.199 |
| ACAGTTTA | -0.162 |
| CAAGTCAC | -0.0876 |
| GAGCACCC | 0.0849 |
| GGGGATAC | 0.252 |
| CAGATTTC | -0.0179 |
| GCGCACAC | 0.00338 |
| CGCAACGC | 0.0985 |
| ATTGACTC | -0.0645 |
| ATGTTCGA | -0.0386 |

| Sequence | PBM E-score |
| --- | --- |
| GTCAGGGA | -0.167 |
| GCTCGGTA | 0.321 |
| AGCATAAC | -0.0647 |
| TACGGATA | 0.266 |
| ATACAAGC | 0.0326 |
| CGACTGGC | 0.0519 |
| ACTTTATA | 0.0306 |
| ACATGTGA | -0.192 |
| CTGTTGAC | -0.268 |
| CAGGGTGG | -0.117 |
| CAAAATAA | -0.128 |
| AGATACGC | 0.0318 |
| ACGTCCTC | -0.132 |
| CACATATC | -0.0269 |
| ATCTGAGA | -0.25 |
| ATTCTACC | -0.0572 |
| GATGACCA | -0.0481 |
| GATCATAC | 0.021 |
| AGGAATGG | -0.227 |
| AGACTTCC | -0.105 |
| AATACACC | 0.159 |
| CGACCTAG | -0.0285 |
| GCTTGAAA | -0.0416 |
| GCGCTTCC | 0.149 |
| ATAACGTC | 0.0738 |

| Sequence | PBM E-score |
| --- | --- |
| GGCAGACA | 0.0194 |
| GCCCCAAA | -0.119 |
| TCGCTTCA | -0.0728 |
| CTTTGTCA | -0.0951 |
| ACCGCAAG | 0.139 |
| AAGGCGGG | -0.00881 |
| CTCAGCCC | -0.232 |
| GTCGCTCA | -0.0885 |
| TCCTTCAA | -0.18 |
| ACGATGTG | -0.0816 |
| TCCATCCA | -0.214 |
| AGCTACGA | -0.161 |
| CATTCTCC | 0.0191 |
| CGATTTTC | 0.147 |
| ACGCGTCG | 0.185 |
| CGCGTGTA | -0.0294 |
| CCTAGTCC | -0.033 |
| TCTGTACA | -0.00729 |
| AGATCTGA | -0.221 |
| ACGTAAAG | -0.171 |
| AGTATTGA | -0.215 |
| CCTCTGCG | -0.16 |
| AAACGACA | -0.19 |
| CGAATTGA | 0.037 |
| GATTGCAC | 0.0112 |

| Sequence | PBM E-score |
| --- | --- |
| CTCCACCC | -0.119 |
| TGTGAAAA | -0.223 |
| ACATATAG | -0.101 |
| AAGGAACT | -0.00211 |
| GATCAGGA | -0.103 |
| GATAGATA | 0.101 |
| AAGATGGT | -0.144 |
| ACAGGACT | -0.0742 |
| AGGGGTAA | -0.351 |
| CGAGGCGC | 0.135 |
| AACACCGG | 0.409 |
| AACCGGGG | 0.301 |
| AATGACGC | -0.0995 |
| GACGCGCA | 0.0824 |
| ATCGAGAG | -0.0935 |
| AGTGAGCA | -0.28 |
| CGACGCGC | 0.192 |
| CGAACCGC | 0.188 |
| TATCATAA | -0.104 |
| CTTGTGCA | -0.164 |
| AGAGCGTA | 0.0207 |
| TACGATGA | -0.175 |
| ACCCTACC | -0.00602 |
| CCTGTAGC | -0.0416 |
| GCCTTAAC | -0.0709 |

| Sequence | PBM E-score |
| --- | --- |
| CTCTGGGC | -0.0926 |
| TGGACAAA | -0.0825 |
| CCACTGAC | -0.186 |
| CCGTTTCG | 0.286 |
| CGCACCGA | 0.0479 |
| ACAGTTCG | 0.145 |
| AATTCGAC | -0.342 |
| CGTTGCAC | 0.065 |
| GATATCAC | 0.0464 |
| ACCCCCCG | 0.226 |
| ACTATTTC | 0.18 |
| GACTAGTA | -0.0995 |
| GGCCAGCC | -0.0464 |
| CACTGTCG | 0.00621 |
| ACAAGCTC | 0.0249 |
| CGAAGGAC | 0.0895 |
| ATTTATTA | 0.129 |
| TTTGAAAA | -0.171 |
| AATCAGAA | -0.0191 |
| AATTTGAG | -0.216 |
| ATCTCCAT | 0.082 |
| GGACTGAC | 0.0614 |
| CAGAGCTA | -0.27 |
| AAAAGATT | 0.0312 |
| CGCACAAG | -0.0355 |

| Sequence | PBM E-score |
| --- | --- |
| GGTGCCTA | -0.0281 |
| CAATACAA | -0.123 |
| CACATTTC | 0.144 |
| CAGGGAGC | -0.271 |
| CATAACTA | 0.0324 |
| GAGGAGAA | -0.0449 |
| CGGGTACG | 0.0983 |
| CTTAGCCA | -0.199 |
| CTCAGTGC | -0.0144 |
| CCAGACTA | -0.327 |
| CCCCCCAC | -0.203 |
| TACATGTA | -0.00095 |
| CCAATTAG | -0.108 |
| ATGGGACC | -0.118 |
| AGTAACAC | -0.00649 |
| CTCGGGAA | 0.306 |
| CTAGCGCA | -0.254 |
| CCGATCAA | 0.195 |
| GGATGAAC | 0.129 |
| CCCTAAAA | -0.0256 |
| GTCGGCCA | 0.165 |
| ACCAAGCG | 0.0447 |
